# In the supplement of paper PMC10126150:
# Values marked as one replicate rest on one cluster of the flow cell; about a third of the high ones do not repeat.
# System: ATP
# Test: switch fluorescence ratio, 500 uM ATP over buffer (Cy3 cluster intensity, sum of 5 cycles each) (fold (ratio)); higher = stronger signal-on switching upon ATP binding; sequences stand for … in TCGTCGGCAGCGTCAGATGTGTATAAGAGACAGTTTTTTTTTTTTTTTTTTTTTTTTT…TC
# Conditions: aptamer strand: ATP DNA aptamer (quencher-CACCTGGGGGAGTATTGCGGAGGAAGG + anchor), 100 nM annealed; ATP concentration: 500 uM; one replicate
# Summary of the method: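 Clusters with intensities outside 100-1000 RFU were excluded. The remaining Cy3-labelled switching-strand clusters on a modified Illumina MiSeq flow-cell had been annealed to 100 nM quencher-labelled ATP aptamer and imaged in selection buffer, then after 15 min with 500 uM ATP at 22 °C, for five cycles separated by NaOH stripping and re-annealing. The fluorescence ratio, averaged per switch-domain sequence, is each cluster's summed target-cycle Cy3 intensity over its summed buffer-cycle Cy3 intensity.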
# 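Also: ATP exposure 15 min at 22 °C before imaging.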
row,Sequence,switch fluorescence ratio
1,TGAGTTTTC,0.965
2,TGATAAACTA,0.991
3,TGATAACCTG,1.09
4,TGATACATT,1.05
5,TGATAGACAG,0.995
6,TGATATACTT,1.12
7,TGATATGAA,1.04
8,TGATCAGTTG,0.985
9,TGATCATAAG,1.03
10,TGATCCCCTT,1.01
11,TGATCCGCA,3.51
12,TGATCCGTTA,1.04
13,TGATCTACGG,0.942
14,TGATGCGACT,0.988
15,TGATGCTCAG,0.98
16,TGATGCTGAT,1
17,TGATGCTGCG,1.02
18,TGATGGCCAG,1.05
19,TGATGGCGAA,1.04
20,TGATGGGCAC,1.05
21,TGATGGTC,0.963
22,TGATGGTCGT,1.06
23,TGATGGTGCT,0.963
24,TGATGGTTCG,0.96
25,TGATGTGAAG,0.996
26,TGATGTGGGT,0.98

row,Sequence,switch fluorescence ratio
1,TGATTATACC,0.986
2,TGATTATCGT,1
3,TGATTCAACG,1.02
4,TGATTCTCCC,1.02
5,TGATTCTTTG,0.995
6,TGATTGACGC,0.995
7,TGATTGCGGA,0.98
8,TGATTTAGAC,0.979
9,TGATTTCCTG,0.965
10,TGATTTCGTG,0.962
11,TGATTTGATT,1.01
12,TGATTTGTGC,0.989
13,TGATTTTG,0.988
14,TGCAAAAAAA,1.05
15,TGCAACGCAT,1.01
16,TGCAAGAT,1.02
17,TGCACAAGAG,0.997
18,TGCACACAAA,1.06
19,TGCACACGTC,1.02
20,TGCACATGAA,1.04
21,TGCACGACAA,1.16
22,TGCACGCTTA,1.03
23,TGCACGGGGT,1.06
24,TGCACTGAGT,1.04
25,TGCACTTAAA,1.02
26,TGCAGAAACT,0.983

row,Sequence,switch fluorescence ratio
1,TGCAGAACGG,1.15
2,TGCAGAGAGG,1
3,TGCAGCCTGG,1.03
4,TGCATATGGT,1.03
5,TGCATCCACC,1.08
6,TGCATTACAC,1.26
7,TGCATTGAGC,1.07
8,TGCCAAGGTC,0.997
9,TGCCAATAA,4.01
10,TGCCAATTGT,1.05
11,TGCCACGAGG,1.04
12,TGCCACTGAG,1.11
13,TGCCAGTCAC,1.01
14,TGCCCCACAC,1.09
15,TGCCCCATTT,1.05
16,TGCCCGATCA,0.967
17,TGCCCGTTTT,0.966
18,TGCCCTGTTT,0.934
19,TGCCGACCGT,1.02
20,TGCCGCAGGG,1.04
21,TGCCGCGACG,1.05
22,TGCCGGAG,1.02
23,TGCCGTCCGC,0.99
24,TGCCTCAACA,1.06
25,TGCCTCATTA,1
